Source: the supplement of paper PMC11125491
± gives the standard deviation of the averaged measurements. Growth of baker's yeast expressing single-residue variants of Pneumocystis jirovecii dihydrofolate reductase in 8.8 or 44 µM methotrexate (about 75% and 90% inhibition of the wild type). Selection coefficient per generation; 0 = like wild type, above 0 = less sensitive, below 0 = more sensitive or loss of function. No active / inactive call per row; the paper calls resistant above 0.220 (8.8 µM) or 0.243 (44 µM) together with a significance test. At 44 µM about 15% of codons end with one read or none, so the lowest values are floors (replicate rank correlation 0.74; 0.94 at 8.8 µM).

B1: UniProt A0EPZ9; numbered along this chain (parent)
chain: MDWQKSLTLIVALTLSRGIGLKNDLPWKLKSDMMFFSRVTSGLLVTRSTGQMNVVLMGRKTWESLPAHSRPLKNRINVVISRQEVLDLGGGAYHARSLDDALALLSQIYDSTSKIQLNRVFVIGGGELCKAAMEHSRLNRIIATVIHNEVDCDVFFPIDFRSSQSCLPWRKQDHSVLEAWVGSKVPQGKINENGFIYEFEMWIRDI

Variants of: B1
Experiment: selection coefficient against synonymous wild-type codons (log2 per generation); higher = faster growth than wild type
Conditions: with Saccharomyces cerevisiae carrying the variant on a plasmid
Experimental: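 Pooled growth of yeast carrying single-residue variants of P. jirovecii dihydrofolate reductase (own DFR1 gene intact), two passages at 30 °C, three cultures, sequenced before and after. Codons with under 15 starting reads are left out; codons of one change are averaged.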

| Variant | selection coefficient against synonymous wild-type codons (log2) (methotrexate 8.8 µM) | selection coefficient against synonymous wild-type codons (log2) (methotrexate 44 µM) |
| --- | --- | --- |
| MDWQKSLTLIVALTLSRGIGLKNDLPWKNKSDMMFFSRVTSGLLVTRSTGQMNVVLMGRKTWESLPAHSRPLKNRINVVISRQEVLDLGGGAYHARSLDDALALLSQIYDSTSKIQLNRVFVIGGGELCKAAMEHSRLNRIIATVIHNEVDCDVFFPIDFRSSQSCLPWRKQDHSVLEAWVGSKVPQGKINENGFIYEFEMWIRDI [L29N] | 0.31 ± 0.036 | 0.284 ± 0.028 |
| MDWQKSLTLIVALTLSRGIGLKNDLPWKLKSDMMFFSRVTSGLLVTRSTGQMNVVLMGRKTWESLPAHSRPLFNRINVVISRQEVLDLGGGAYHARSLDDALALLSQIYDSTSKIQLNRVFVIGGGELCKAAMEHSRLNRIIATVIHNEVDCDVFFPIDFRSSQSCLPWRKQDHSVLEAWVGSKVPQGKINENGFIYEFEMWIRDI [K73F] | -0.413 ± 0.09 | -0.165 ± 0.11 |
| MDWQKSLTLIVALTLSRGIGLKNDLPWKLKSDMMFFSRVTSGLLVTRSTGQMNVVLMGRKTWESLPAHSRPLKNRINVVISRQEWLDLGGGAYHARSLDDALALLSQIYDSTSKIQLNRVFVIGGGELCKAAMEHSRLNRIIATVIHNEVDCDVFFPIDFRSSQSCLPWRKQDHSVLEAWVGSKVPQGKINENGFIYEFEMWIRDI [V85W] | -0.211 ± 0.015 | -0.185 ± 0.13 |
| MDWQKSLTLIVALTLSRGIGLKNDLPWKLKSDMMFFSRVTSGLLVTRSTGQMNVVLMGRKTWESLPAHSRPLKNRINVVISRQEVLDLGGGAYHARSLDDALALLSQIYDSTSKIQLNRVFVIGGGELCKAAMECSRLNRIIATVIHNEVDCDVFFPIDFRSSQSCLPWRKQDHSVLEAWVGSKVPQGKINENGFIYEFEMWIRDI [H135C] | -0.0289 ± 0.055 | -0.101 ± 0.09 |
| MDWQKSLTLIVALTLSRGIGLKNDLPWKLKSDMMFFSRVTSGLLVTRSTGQMNVVLMGRKTSESLPAHSRPLKNRINVVISRQEVLDLGGGAYHARSLDDALALLSQIYDSTSKIQLNRVFVIGGGELCKAAMEHSRLNRIIATVIHNEVDCDVFFPIDFRSSQSCLPWRKQDHSVLEAWVGSKVPQGKINENGFIYEFEMWIRDI [W62S] | -0.498 ± 0.052 | -0.25 ± 0.057 |
| MDWQKSLTLIVALTLSRGIGLKNDLPWKLKSDMMFFSRVTSGLLVTRSTGQMNVVLMGRKTWESLPAHSRPLKNRINVVISRQEVLDLGGGAYHARSLDDALALLSQIYDSTSKIQLNRVFVIGGGELCKAAMEHSRLNRIIATVIHNEVDCDVFFPIDFRSSQSCLPWRKQDHSVLEAWVGGKVPQGKINENGFIYEFEMWIRDI [S183G] | -0.000876 ± 0.028 | -0.047 ± 0.074 |
| MDWQKSLTLIVALTLSRGIGLKNDLPWKLKSDMMFFSRVTSGLLVTRSTGQMNVVLMGRKTWESLPAHSRPLKNRINVVISRQEVLDLGGGAYHARSLDNALALLSQIYDSTSKIQLNRVFVIGGGELCKAAMEHSRLNRIIATVIHNEVDCDVFFPIDFRSSQSCLPWRKQDHSVLEAWVGSKVPQGKINENGFIYEFEMWIRDI [D100N] | -0.263 ± 0.024 | -0.096 ± 0.026 |
| MDWQKSLTLIVALTLSRGIGLKNDLPWKLKSDMMFFSRVTSGLLVTRSTGQMNVVLMGRKTWESLPAHSRPLKNHINVVISRQEVLDLGGGAYHARSLDDALALLSQIYDSTSKIQLNRVFVIGGGELCKAAMEHSRLNRIIATVIHNEVDCDVFFPIDFRSSQSCLPWRKQDHSVLEAWVGSKVPQGKINENGFIYEFEMWIRDI [R75H] | -0.721 ± 0.038 | -0.261 ± 0.027 |
